Experimental data: EPA's CvTdb concentration-time database
Further values from the same series stand in other lists.

Assays:
[1] = test system: rat; experiment: concentration in expired air after dosing; conditions: dosed: 1,1-dichloroethylene, 300 ppm, inhalation, duration: 3 hr, male, Sprague-Dawley
[2] = test system: Rat; experiment: concentration in plasma after dosing; conditions: dosed: 2,4-Dichlorophenoxyacetic acid, 2.0 mg/kg, iv, Male, Sprague-Dawley
[3] = test system: Rat; experiment: concentration in plasma after dosing; conditions: dosed: 2,4-Dichlorophenoxyacetic acid, Male, Sprague-Dawley
[4] = test system: Mouse; experiment: concentration in plasma after dosing; conditions: 1 h, dosed: 2,4-Dichlorophenoxyacetic acid, oral, Male, B6C3F1
[5] = test system: Mouse; experiment: concentration in plasma after dosing; conditions: 1 h; dosed: 2,4-Dichlorophenoxyacetic acid; 1.0 mg/kg; oral; Male; B6C3F1
[6] = test system: Rat; experiment: concentration in plasma after dosing; conditions: dosed: 2,4-Dichlorophenoxyacetic acid, 7.0 mg/kg, oral, Male, Sprague-Dawley
[7] = test system: Mouse; experiment: concentration in plasma after dosing; conditions: 1 h; dosed: 2,4-Dichlorophenoxyacetic acid; 2.0 mg/kg; oral; Male; B6C3F1
[8] = test system: Mouse; experiment: concentration in plasma after dosing; conditions: 1 h; dosed: 2,4-Dichlorophenoxyacetic acid; 5.2 mg/kg; oral; Male; B6C3F1
[9] = test system: Rat; experiment: concentration in plasma after dosing; conditions: dosed: 2,4-Dichlorophenoxyacetic acid, 7.0 mg/kg, oral, Male, Sprague-Dawley; remark: listed apart in the source
[10] = test system: Mouse; experiment: concentration in plasma after dosing; conditions: 1 h; dosed: 2,4-Dichlorophenoxyacetic acid; 5.2 mg/kg; oral; Male; B6C3F1; remark: listed apart in the source
[11] = test system: Mouse; experiment: concentration in plasma after dosing; conditions: 1 h; dosed: 2,4-Dichlorophenoxyacetic acid; 2.0 mg/kg; oral; Male; B6C3F1; remark: listed apart in the source
[12] = test system: Rat; experiment: concentration in plasma after dosing; conditions: dosed: 2,4-Dichlorophenoxyacetic acid, 2.0 mg/kg, iv, Male, Sprague-Dawley; remark: listed apart in the source
[13] = test system: Mouse; experiment: concentration in plasma after dosing; conditions: 1 h; dosed: 2,4-Dichlorophenoxyacetic acid; 1.0 mg/kg; oral; Male; B6C3F1; remark: listed apart in the source

C=C(Cl)Cl [1,1-dichloroethylene]
[1]
Conditions	concentration in expired air [ppm]
0.1004 h	10.5
0.1524 h	8.36
0.2602 h	6.83
0.4994 h	6.65
17 s	267
23.5 min	6.59
82 s	30.4

[1], during exposure
Conditions	concentration in expired air [ppm]
-2.858 h	192
-2.795 h	195
-2.723 h	199
-2.656 h	202
-2.593 h	206
-2.533 h	210
-2.466 h	214
-2.402 h	217
-2.343 h	218
-2.271 h	222
-2.2 h	227
-2.136 h	228
-2.065 h	234
-1.994 h	237
-1.858 h	239
-1.731 h	240
-1.591 h	242
-1.48 h	245
-1.345 h	245
-1.209 h	246
-1.086 h	247
-0.9303 h	249
-0.7949 h	250
-0.6635 h	252
-0.5361 h	254
-0.4049 h	258
-0.2578 h	261
-0.1267 h	266

O=C(O)COc1ccc(Cl)cc1Cl [2,4-Dichlorophenoxyacetic acid]
Conditions	concentration in plasma [ng/mL]
[2], 1 h	8450
[2], 1.5 h	2240
[2], 5 min	17400
[4], 1.0 mg/kg	1400
[4], 2.0 mg/kg	3690
[4], 5.2 mg/kg	20200
[6], 1 h	19100
[6], 5 min	7320
[6], 8 h	2340
[9], 1 h	7260
[9], 5 min	6880
[9], 8 h	675
[12], 1 h	6020
[12], 1.5 h	2870
[12], 5 min	21800

concentration in plasma [ng/mL], [3]
Conditions	1 h	1.5 h	5 min	8 h
2.0 mg/kg, iv	7020	2480	20700	–
7.0 mg/kg, oral	3790	–	5830	4700

Conditions	concentration in plasma [ng/mL]
[5]	2190
[7]	6360
[8]	19700
[10]	14600
[11]	7710
[13]	1950
